The supplement of paper PMC10126150
Values marked as one replicate rest on one cluster of the flow cell; about a third of the high ones do not repeat.

Tested on: ATP
Experiment: switch fluorescence ratio, 500 uM ATP over buffer (Cy3 cluster intensity, sum of 5 cycles each) (fold (ratio)); higher = stronger signal-on switching upon ATP binding; sequences stand for … in TCGTCGGCAGCGTCAGATGTGTATAAGAGACAGTTTTTTTTTTTTTTTTTTTTTTTTT…TC
Settings: aptamer strand: ATP DNA aptamer (quencher-CACCTGGGGGAGTATTGCGGAGGAAGG + anchor), 100 nM annealed; ATP concentration: 500 uM; one replicate
Method in brief: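 Values give the fluorescence ratio for each switch-domain sequence, averaged from per-cluster ratios of summed target-cycle to summed buffer-cycle Cy3 intensity. The Cy3-labelled switching-strand clusters sat on a modified Illumina MiSeq flow-cell, were annealed to 100 nM quencher-labelled ATP aptamer, and were imaged in selection buffer, then after 15 min with 500 uM ATP at 22 °C. Five cycles ran with NaOH stripping and re-annealing between them, and clusters outside 100-1000 RFU were excluded.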
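Further: ATP exposure 15 min at 22 °C before imaging.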

Sequence	switch fluorescence ratio
TATCCATAGG	1.04
TCTTCTGTGG	1.03
TGCATAAATG	1.03
TTCGTTGAGC	0.995
CAAGCAATAG	4.35
TCGAATCGCA	1.35
CTTGTAGTTA	1.04
CTTTGTTGAG	1
ATCAAGTACG	1.22
TCTGTTTATT	1.03
TTCGGGGGCC	1.03
CCTTGAAGGC	1.19
TAACCGGGGA	1.03
AAATATGATA	0.977
TTCGTCCGGT	1.21
CTACTGGTCT	1.06
AAACTGGTTT	1.03
ATTGACACGG	1.19
GCTGTTGCCG	0.983
ATCGGCAAAA	1.23
TTCGTTGCAG	1
ATTCTATTAT	0.981
AGGGATACAT	1.06
AACAACTCCG	1.59
GTTGATGTGT	0.984
GACATGGGTC	0.978

Sequence	switch fluorescence ratio
GGATCGGACA	0.963
GCGGCGAAGG	1
ACTTGCCATG	1.03
TCAAGAATAT	1.03
CGTCCCCAGA	1.29
AGTGATGCTA	0.999
CTTTTGCGAC	1.12
ACTACTAA	1.05
AATATATAGT	0.984
TCTACAGGG	0.97
TGGTCAATGG	1.08
GATATTAGG	1.01
ACACCGGTCA	0.991
AATCAACAGA	1.02
GAGAAGTATG	1.04
TAAGGTTGAG	0.987
CGCCCGGCCT	0.887
GTAAGAAACC	1.14
GCTTAAGTGG	1
TAAGTCTGCG	0.927
GCAGGTTCGT	0.976
TGTTGTCGCC	1.01
AAGTTAGAGG	0.981
CTAATTCTGA	0.972
ATTACGGAGC	1.44
GGTAAGACAG	0.932

Sequence	switch fluorescence ratio
GAAAAAGGT	0.98
CCTGAAGATT	1.05
GGGTTTAACT	1.06
TTGAATGCAC	1.08
CATCGCCGGG	0.993
GATAAAACAC	1.03
AAGTGGAAGG	1
AAGCTCTAAC	1.04
CGCGCCTTCG	1.14
ACGCCTGCGT	1.01
ACCCTGTGGG	0.974
TAAGGAGCGA	1.05
GGATAATCTC	0.999
CGAAATAATA	1.02
AGGCGAGAAA	0.983
CTTTAGTAAA	1.02
ATAATATTT	1.05
TGCGAATGG	0.966
CGCGTCTTCT	1.01
AATAGTATTC	1.02
TCACGCAATG	3.6
AACTTGCTGG	0.996
ACTGCGTATA	1.06
CGGCGGGGTA	0.998
GAGTAAATGC	1.17
GCGATGGGAA	0.981

Sequence	switch fluorescence ratio
GCTGTGTTCT	0.979
GAAGGTGCGT	1.04
TGCTTGGGAG	0.976
GGCATTAGTG	1.02
ATTGAGTTG	0.999
GGGGGATAA	0.973
AAGTTCGAG	1.02
TTCTGATGTC	0.936
TGCTTCGATA	0.994
TTAGTGAAGA	0.973
CAAGCAAT	2.42
GAGCCAGGGT	1.03
TGTCAGATGG	0.965
TCATTCCGTT	1.08
GGGAACTAAT	0.982
CTGTGATGTA	0.994
ATCATCGCCC	1.06
CGTATACGCC	0.992
GATGTGGCGA	1.02
ATCAACGGCG	0.945
GGTTGTTAGA	0.996
GGGTGATTCA	1.04
TGCCCCAGGC	1.04
ACAGGGCAGG	1.13
CCACGTTTCC	1.24
TAAAAGACAG	1.04

Sequence	switch fluorescence ratio
TTCGCCCAAT	2.06
CGGTATATGC	1.12
GTCGTAAGGT	0.993
GCTTCGGGCG	0.978
GACACAGGTT	1.16
TATGGGCTTG	1
GGTACGGGT	0.967
GAGAAGTTTC	1.06
AGGGAAGGAG	0.992
GTGCTCTTTC	0.99
AGCTTTGTGA	1.05
TATTATACTT	1.03
TTTGGGCAAT	1.14
GAAAGAAGCC	0.973
GCGGAAGGTA	0.964
CGAAGGCTAT	1.16
TTTGAGTTTA	1.02
AGGCCTTAAC	1.02
AGGGGCAA	1.45
ATGGGTTCGG	1.01
CGGCCGTATC	1.12
CTGAGGCGG	1.11
ATACAGTAAC	1.14
CGGCTAACTG	0.993
TTATAGGATT	1.01
GGTACTCCCA	1.31

Sequence	switch fluorescence ratio
GAGTCAGGGA	1.01
TCGCGTAATG	0.943
CGGGAGGATC	1.04
TGTAGTGTCC	1.02
GAAGCGGGCC	1.21
CTTTTGGAAA	1.02
CGGCCCAGAG	1.16
TCCATCGAGT	1.01
AAGCGTCCAT	1.01
TGGTGTAAG	1
GACGTTTCGA	0.993
ACTGACAAAT	1.24
TGAATGTCGG	0.994
TCATTGTAAT	0.998
TGGTAGCTTT	0.984
TACGCTTCCG	1.06
CGGTTAGTCT	1.03
GTACCATCGA	0.983
AATGTCCCGG	0.978
TGCAGGGCCC	1.04
CTTAGTATTC	0.973
ATGAAAAGCT	1.05
AAGTCAAGC	1.06
GATTGCTGGG	0.981
AACCTGTCTT	1.02
TAAAGCGTT	0.963

Sequence	switch fluorescence ratio
AGTGAATGAG	0.939
AGTGAGCGAC	1
AGCATTCACG	1.09
CACGGCTGAG	0.96
TCTGTAAATA	0.998
GCCCGATG	1.03
GACCGCGGCC	1.03
TGACTCATAG	1.03
CCGTAATGGT	4.61
ACCACAGGCG	2.37
CATGTTGAAT	1.01
CAGTACCACC	1.15
ACTAAATGAG	1.02
AGAGATGAA	0.953
TCGCAAAAGT	1.33
ATATGCCAGA	0.977
CTCACGTTGG	1.01
AAACATTGGT	1.05
GCATAGCAAG	0.958
GGCTGGAGTG	0.973
GATTTGGCCT	1.21
TATCTTTATA	0.974
CCGGATCGTG	0.941
AGTATCCAGC	1.03
GCCCTTTATC	0.985
AGTCGCCCGG	1.11

Sequence	switch fluorescence ratio
CAAACCACAC	1.4
TCAGTGCGAC	1
AAGGGCCTCT	1.02
CGACTGCGAA	1.55
CAAATATAC	1.41
TAGCGGTGCC	0.986
CCACCCCAGT	2.16
GATGTTATTT	0.954
TATACGTGCG	1
AATATCCT	1.01
CGTTATAAGA	0.99
GGGTGGAGA	1.08
ATTCGCTACC	1.49
ACCTAGGCCA	1.03
ACGATTAGA	1.02
TCGATACCAC	1.05
GACTGAGCG	0.962
GTAGGGACCT	1.11
TTAGGTTGCG	1.04
